Reference: PubChem BioAssay AID588855 (National Center for Advancing Translational Sciences (NCATS), 2011)
The campaign covered roughly 410,000 compounds. About 5,000 (1.2%) were called active. Inconclusive results, whose numbers are uncertain, are shown with a selection of clear calls. The call rests on the fitted dose curve; in most records, active means well fitted inhibition curve with a large enough effect; inconclusive means small, poorly fitted or top-dose-only effect; inactive means no such curve, though single readings can be large or run the other way. Where the call is inconclusive, the potency comes from a doubtful curve fit.

Assay: qHTS for Inhibitors of TGF-b; further: nearly all actives have a fitted effect of over 65% in size
Conditions: HepG2 CAGA-GFP TGF-b/SMAD3 reporter, GFP fluorescence, 18 h, TGF-beta stimulated, 500 pg/mL final; series mostly up to 46.1 µM; activity, negative = inhibition: at the top concentration
Method in brief: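 Smad-responsive CAGA-GFP expression was quantified in HEPG2 cells exposed to compounds and 500 pg/mL final TGF-beta for 18 h at 37 degrees C; unstimulated wells defined full inhibition.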
On the % scale 0 is the no-effect control and ±100 the full control effect; potency means the concentration at half of the fitted maximal effect; tags describe the fitted curve by direction and shape.

SMILES | activity, negative = inhibition | Potency
CCOc1ccccc1-c1cc(C(=O)Nc2ccc(C(=O)O)cc2)c2ccccc2n1 | inactive: 0% | 
COc1ccccc1C1Nc2c(sc3nc(C)cc(C)c23)C(=O)N1c1ccccc1 (stereo not given) | inactive: -1.87% | 
COc1cc(S(=O)(=O)N2CCCCC2)ccc1NC(=O)c1ccccc1Cl |  | inconclusive: 6.31 µM [inhibitor, single point]
O=C(c1cccc(N2C(=O)C3C4C=CC(C4)C3C2=O)c1)N1CCCCCC1 (stereo not given) |  | inconclusive: 3.16 µM [inhibitor, single point]
C=CC(c1ccccc1)C(C(=O)c1ccccc1)N(C)C (stereo not given) | inactive: 1.26% | 
Cc1nc(N)nc(N)c1/C=C/C(C)(C)c1ccc(Cl)cc1 |  | inconclusive: 14.1 µM [inhibitor, partial curve, poor fit]
S=C(Nc1ccc(Br)cc1)N1CCN(c2ccccn2)CC1 |  | inconclusive: 17.8 µM [inhibitor, single point]
O=C(c1ccc(C23CC4CC(CC(C4)C2)C3)o1)N1CCOCC1 |  | inconclusive: 11.2 µM [inhibitor, single point]
Cc1cccc(N2CCN(S(=O)(=O)c3ccc(-c4cc(C(F)(F)F)on4)s3)CC2)c1C | inactive: 0% | 
COc1cc2c(cc1OC)CN(C1CC(=O)N(c3c(C)cccc3C)C1=O)CC2 (stereo not given) |  | inconclusive: 6.31 µM [inhibitor, partial curve]
CN(Cc1cccc(F)c1)C(=O)c1ccc(S(=O)(=O)N2CCCCCC2)cc1 |  | inconclusive: 35.5 µM [inhibitor, partial curve, poor fit]
COc1ccc(COC(=O)C2=C(C)NC(=O)NC2c2cccc(Br)c2)cc1 (stereo not given) |  | inconclusive: 35.5 µM [inhibitor, single point]
CCCOc1ccccc1C1CC(=O)NC(C)=C1C(=O)OCC(C)C (stereo not given) |  | inconclusive: 35.5 µM [inhibitor, single point]
CCc1ccc2c(c1)NC(c1ccc(C)cc1)=NC(c1cccs1)=N2 |  | inconclusive: 22.4 µM [inhibitor, partial curve, poor fit]
COc1ccc(S(=O)(=O)N2CCC(C(=O)N3CCc4ccccc4C3)CC2)cc1C |  | inconclusive: 20 µM [inhibitor, partial curve, poor fit]
Cc1ccc(S(=O)(=O)N(C)c2c(C)ccc(S(=O)(=O)N3CCN(C)CC3)c2C)cc1 |  | inconclusive: 35.5 µM [inhibitor, single point]
O=[N+]([O-])c1c(NCCO)cc(N2CCC3(CC2)OCCO3)c2nonc12 | inactive: -15.5% | 
Cc1cccc(C(=O)Nc2cc(S(=O)(=O)N3CCOCC3)ccc2N2CCCC2)c1 |  | inconclusive: 35.5 µM [inhibitor, single point]
Cc1cccc(N2CCN(C(=O)C(Cc3ccccc3)NC(N)=O)CC2)c1C (stereo not given) |  | inconclusive: 35.5 µM [inhibitor, partial curve, poor fit]
O=C(c1cccs1)c1ccccc1Cc1cccs1 |  | inconclusive: 35.5 µM [inhibitor, single point]
COc1ccc(Nc2c(-c3ccc(N4CCOCC4)cc3)nc3ncccn23)cc1OC |  | inconclusive: 1.26 µM [inhibitor, full curve, poor fit]
COc1cccc(OC)c1C(=O)N1CCN(c2c(Cc3ccccc3)c(C)nc3ncnn23)CC1 |  | inconclusive: 4.47 µM [inhibitor, partial curve, poor fit]

SMILES | activity, negative = inhibition | Potency
CN(C)CCC(=O)c1cccc(Br)c1 |  | active: 14.1 µM
CCOc1cc(CN2CCN(S(=O)(=O)c3ccc(C)cc3)CC2)ccc1OC |  | inconclusive: 0.501 µM [inhibitor, full curve]
COC(=O)COc1cccc2c(=O)n(CC(=O)NCc3ccc(F)cc3)ccc12 | inactive: -24.4% | 
Cc1cccc(N2CCN(S(=O)(=O)c3cc(-c4cc(C)no4)ccc3C)CC2C)c1 (stereo not given) | inactive: -2.75% | 
COc1ccc(F)cc1-c1cc(NC=O)c2ncc(-c3cccc(C(F)(F)F)c3)n2c1 |  | inconclusive: 35.5 µM [inhibitor, single point]
O=S(=O)(/C=C/c1ccccc1)N1CCN(Cc2ccc3c(c2)OCO3)CC1 |  | inconclusive: 17.8 µM [inhibitor, single point]
CCOC(=O)c1sc(-c2ccccc2)cc1NC(=O)Nc1ccccc1 |  | inconclusive: 35.5 µM [inhibitor, single point]
O=S(=O)(/N=C(/Sc1ccccc1)c1ccccc1)c1ccccc1 | inactive: -1.69% | 
Cc1cc(C)nc(Nc2ncc(O)n2-c2ccc(C)c(C)c2)n1 | inactive: 1.8% | 
Cc1cc(C)cc(NS(=O)(=O)c2ccc(N3CCCCS3(=O)=O)cc2)c1 | inactive: -18.9% | 
O=C(CCCl)Nc1cccc2cccnc12 |  | active: 7.08 µM
CC1(C(=O)Nc2cccc(C#N)c2)CCN1C(=O)c1ccccc1CCc1ccccc1 (stereo not given) |  | inconclusive: 3.55 µM [inhibitor, partial curve, poor fit]
Cc1cccc(NC(=O)CN(C)C(=O)C2CC2)c1C | inactive: -12.4% | 
CCC(=O)N1CCN(c2ccc(Cl)cc2NC(=O)c2ccc([N+](=O)[O-])o2)CC1 |  | inconclusive: 35.5 µM [inhibitor, partial curve, poor fit]
CSCCC(NC(=O)COc1ccccc1)C(=O)N1CCN(c2cccc(C(F)(F)F)c2)CC1 (stereo not given) |  | inconclusive: 14.1 µM [inhibitor, partial curve, poor fit]
CCCN1C(C(=O)c2ccccc2)=C(OC(=O)c2ccc(OC)cc2)c2ccccc2S1(=O)=O |  | inconclusive: 15.8 µM [inhibitor, single point]
Cc1nc(N)nc(N(C)c2ccccc2)c1Br | inactive: -9.73% | 
Cn1nnnc1SCCCNCc1ccc(-c2ccc(F)c(Cl)c2)o1 | inactive: -16.8% | 
CN(Cc1ccc(F)cc1)S(=O)(=O)c1nnc(NC(=O)c2ccccc2Cl)s1 |  | inconclusive: 35.5 µM [inhibitor, single point]
C[C@@]12C(=O)N(c3cccc(Br)c3)C(=O)N1[C@H](c1ccc(Cl)cc1)[C@@H]1C(=O)N(C3CCCCC3)C(=O)[C@@H]12 |  | active: 11.2 µM
O=C(Cn1c(=O)c(C(F)(F)F)nc2ccccc21)Nc1cccc(Br)c1 |  | inconclusive: 5.62 µM [inhibitor, single point]
CCC(=O)NC(c1ccccc1Cl)c1c(O)ccc2ccccc12 (stereo not given) |  | inconclusive: 35.5 µM [inhibitor, single point]

SMILES | activity, negative = inhibition | Potency
CC(C)(C)c1cnnn1-c1ccc(/C=N/Nc2ccc([N+](=O)[O-])cc2)cc1 | inactive: -33.2% | 
Cc1cc(C)cc(Nc2cc(C(=O)NC3CCC(C)CC3)c3ccccc3n2)c1 (stereo not given) |  | inconclusive: 7.08 µM [inhibitor, partial curve, poor fit]
O=C(Nc1ccc2nn(-c3ccccc3)nc2c1)c1cccs1 |  | inconclusive: 22.4 µM [inhibitor, single point]
COc1ccc(-c2nc3c(Cl)cc(C(F)(F)F)cn3c2Cc2cccc(F)c2)cc1OC |  | inconclusive: 15.8 µM [inhibitor, single point]
COC(CNC(=O)C1CCN(C(=O)c2cc3oc(C)cc3n2Cc2c(F)cccc2Cl)CC1)OC |  | inconclusive: 4.47 µM [inhibitor, full curve, poor fit]
C[C@@]12C=Cc3occc3[C@H]1CC[C@]13CC(=O)[C@@H](CC[C@H]12)C3 |  | inconclusive: 14.1 µM [inhibitor, single point]
Cc1ccc(NC(=S)NCc2ccc3[nH]c4c(c3c2)CCCC4)cc1 |  | inconclusive: 28.2 µM [inhibitor, single point]
c1ccc(N2CCN(c3nc(-c4cccs4)nc4ccccc34)CC2)cc1 |  | inconclusive: 20 µM [inhibitor, single point]
Cc1cc(C(=O)CCl)c(C)n1CCc1ccc(F)cc1 |  | inconclusive: 20 µM [inhibitor, single point]
CS(=O)(=O)N(CC(=O)N1CCN(c2ccc(F)cc2)CC1)C1CCCCC1 |  | inconclusive: 35.5 µM [inhibitor, partial curve, poor fit]
CCOc1cccc(-c2nnc3sc(COc4ccccc4)nn23)c1 |  | inconclusive: 0.0891 µM [inhibitor, full curve, poor fit]
Cc1ccc(CNC(=O)c2ccc(OCC3CCCO3)cc2)cc1 (stereo not given) | inactive: -6.13% | 
O=c1c2ccccc2sn1-c1cccc(Cl)c1 |  | inconclusive: 14.1 µM [inhibitor, partial curve, poor fit]
NC1=NC(c2ccc(Br)cc2)n2c(nc3ccccc32)N1 (stereo not given) |  | inconclusive: 22.4 µM [inhibitor, partial curve, poor fit]
C=CCOC(=O)Nc1c(C(=O)OC)[nH]c2ccc(Cl)cc12 |  | inconclusive: 10 µM [inhibitor, partial curve]
CCCCCOc1ccc(C(=O)C(c2ccccc2)N2CCOCC2)cc1 (stereo not given) | inactive: -4.32% | 
Cc1cc(C)n(CCC(=O)N/N=C/c2ccc(O)cc2O)n1 | inactive: -6.6% | 
CCCCc1ccc(NC(=O)CSc2nc(=O)n(CCCN3CCOCC3)c3c2CCC3)cc1 |  | inconclusive: 35.5 µM [inhibitor, single point]
NC(c1csc(NC(=O)Nc2ccccc2Oc2ccccc2)n1)c1ccccc1Cl (stereo not given) |  | inconclusive: 22.4 µM [inhibitor, single point]
Cc1cccc(Oc2cc([N+](=O)[O-])cc3c2C(=O)Nc2ccccc2O3)c1 |  | inconclusive: 35.5 µM [inhibitor, single point]
C#CCOCCOCCOCCNc1nc(N2CCN(C(=O)CCCCCCCCCCNC(=O)[C@H](CCCCN)n3cc(C)nn3)CC2)nc(N2CCN(C(=O)CCCCCCCCCCNC(=O)[C@H](CCCN=C(N)N)n3cc(C[C@@H](C)CC)nn3)CC2)n1 |  | inconclusive: 35.5 µM [inhibitor, partial curve, poor fit]
